Where “and” joins values, the source holds several entries; their conditions need not be identical. Equal entries are not always repeated. Inconclusive means that the source gave no clear call. Such entries were picked first, then a sample of the others. Potencies of inconclusive entries are doubtful fits and often do not repeat. Some structures have more than one record in an assay (separate samples or runs), and their calls can disagree. Calls of active or inactive are those of the source. Unless noted, calls follow the shape of the dose curve; as a rule, active = well fitted curve in the direction sought with a large enough effect in the repeat runs; inconclusive = weak or mixed curves; inactive = no such curve, though single readings can be large; an effect the other way counts as inactive or inconclusive.
Legend:
[1] = qHTS assay to identify small molecule agonists of the constitutive androstane receptor (CAR) signaling pathway - cell viability counter screen (AID 1224836); also: nearly all actives have a fitted effect of over 45% in size
Summary of the method: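 HepG2 cells stably carrying hCAR and a CYP2B6-2.2kb reporter were plated 4 h, then given compounds at 15 concentrations plus PK11195 (final 0.75 uM). After 23 h at 37 C, viability was read by CellTiter-Fluor fluorescence.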

[2] = biological target: Nuclear receptor subfamily 1 group I member 3 (Homo sapiens) (UniProt Q14994); assay: qHTS assay to identify small molecule antagonists of the constitutive androstane receptor (CAR) signaling pathway (AID 1224838); also: nearly all actives have a fitted effect of over 40% in size; as to activity, negative = inhibition: % is scaled to controls: 0 for no effect and ±100 for the full control effect
UniProt Q14994, sequence (Q14994 whole entry, looked up): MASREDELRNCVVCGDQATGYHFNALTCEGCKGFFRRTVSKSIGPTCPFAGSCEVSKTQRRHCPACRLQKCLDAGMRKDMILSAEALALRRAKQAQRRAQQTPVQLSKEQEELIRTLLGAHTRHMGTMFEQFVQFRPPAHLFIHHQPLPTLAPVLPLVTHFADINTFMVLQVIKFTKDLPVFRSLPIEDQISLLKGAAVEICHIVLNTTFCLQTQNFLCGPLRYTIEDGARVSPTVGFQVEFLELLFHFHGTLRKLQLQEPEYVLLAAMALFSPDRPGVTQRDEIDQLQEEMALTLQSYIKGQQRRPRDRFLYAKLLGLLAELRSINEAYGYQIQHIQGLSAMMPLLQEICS
Summary of the method: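 Inhibition of CITCO-driven (50 nM final) CYP2B6 reporter expression is measured in HepG2 cells stably carrying hCAR. Fifteen compound concentrations are applied for 24 h at 37 C, followed by luciferase luminescence.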

[3] = biological target: Nuclear receptor subfamily 1 group I member 3 (Homo sapiens) (UniProt Q14994); assay: qHTS assay to identify small molecule agonists of the constitutive androstane receptor (CAR) signaling pathway (AID 1224839); also: nearly all actives have a fitted effect of over 15% in size; as to activation: % is scaled to controls: 0 for no effect and ±100 for the full control effect
Summary of the method: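 HepG2 cells stably expressing hCAR and a CYP2B6-2.2kb luciferase reporter were treated with compounds at 15 concentrations plus 0.75 uM PK11195 (final) for 24 h at 37 C; luminescence was read after ONE-Glo addition.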

[4] = qHTS assay to identify small molecule antagonists of the estrogen related receptor signaling pathway with the pleiotropic PPARgamma coactivator (PGC) from Tox21 10K library - cell viability counter screen (AID 1224840; active = well fitted cell-killing curve with a large enough effect in the repeat runs, not every such curve was filed as active; inconclusive = weak or mixed curves, or effect the other way; inactive = no such curve, though single readings can be large or run the other way; also: nearly all actives have a fitted effect of over 40% in size)
Summary of the method: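 Readout: fluorescence intensity from CellTiter-Fluor after 30 min at 37 C/5% CO2. Preceded by 17.5 h treatment of PGC/ERR cells with DMSO-dissolved compounds, added 6 h post-seeding.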

[5] = biological target: Thyrotropin receptor (Homo sapiens) (UniProt P16473); assay: qHTS assay to identify small molecule agonists of the thyroid stimulating hormone receptor (TSHR) signaling pathway (AID 1224843; calls by dose curve; also: nearly all actives have a fitted effect of over 45% in size; as to activation: % is scaled to controls: 0 for no effect and ±100 for the full control effect); conditions: TSHR-HEK293 cells, cAMP HTRF, agonist mode, 30 min
UniProt P16473, sequence (P16473 whole entry, looked up): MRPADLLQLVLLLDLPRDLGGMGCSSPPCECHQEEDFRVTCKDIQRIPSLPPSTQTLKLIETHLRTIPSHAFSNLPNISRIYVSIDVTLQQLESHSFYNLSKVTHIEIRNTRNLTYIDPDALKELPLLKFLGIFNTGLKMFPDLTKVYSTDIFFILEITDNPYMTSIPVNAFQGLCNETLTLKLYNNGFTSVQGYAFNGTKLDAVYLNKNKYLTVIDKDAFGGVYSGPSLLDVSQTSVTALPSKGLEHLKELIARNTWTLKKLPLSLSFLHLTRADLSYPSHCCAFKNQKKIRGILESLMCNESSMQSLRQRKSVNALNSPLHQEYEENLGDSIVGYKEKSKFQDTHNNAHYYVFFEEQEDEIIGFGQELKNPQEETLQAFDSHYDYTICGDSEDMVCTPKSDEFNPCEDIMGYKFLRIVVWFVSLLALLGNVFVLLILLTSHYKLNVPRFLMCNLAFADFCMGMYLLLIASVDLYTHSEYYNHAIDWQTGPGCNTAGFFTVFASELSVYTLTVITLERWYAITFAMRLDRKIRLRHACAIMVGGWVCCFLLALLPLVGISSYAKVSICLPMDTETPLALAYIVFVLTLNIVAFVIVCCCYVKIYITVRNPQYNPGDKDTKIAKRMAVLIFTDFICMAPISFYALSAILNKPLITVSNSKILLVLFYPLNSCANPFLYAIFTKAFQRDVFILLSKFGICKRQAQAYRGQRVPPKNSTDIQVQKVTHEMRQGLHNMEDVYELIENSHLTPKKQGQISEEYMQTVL
Summary of the method: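 Agonist activity read as cAMP rise via d2/cryptate HTRF competition, 1 h room-temperature detection, in HEK293 cells expressing TSHR. Fifteen-point titrations, each run in triplicate, with a 30 min room-temperature incubation beforehand.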

[6] = qHTS assay to identify small molecule agonists of the hypoxia (HIF-1) signaling pathway - cell viability counter screen (AID 1224844; calls by dose curve; also: nearly all actives have a fitted effect of over 50% in size)
Summary of the method: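 In this counter screen, HRE-bla ME-180 cell viability after 17 hrs of compound exposure at 37C was read by CellTiter-Glo luminescence, multiplexed with the beta-lactamase reporter measurement.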

[7] = qHTS assay to identify small molecule antagonists of the estrogen related receptor (ERR) signaling pathway from Tox21 library - cell viability counter screen (AID 1224834); also: nearly all actives have a fitted effect of over 30% in size
Summary of the method: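 Counter screen run in ERR cells (2,000 cells/well): cells pre-incubated 6 h, then treated with compounds for 17.5 h at 37 C. Fluorescence was read 30 min after CellTiter-Fluor addition.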

[8] = qHTS assay to identify small molecule antagonists of the estrogen related receptor signaling pathway with the pleiotropic PPARgamma coactivator (PGC) from Tox21 10K library (AID 1224841; call rule not given here; also: actives are mostly falling curves and most rising ones were filed inactive; nearly all actives have a fitted effect of over 50% in size)
Summary of the method: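 One-Glo luminescence, measured after half an hour at room temperature, quantified reporter output of PGC/ERR cells. These had been plated at 2,000 per well, incubated 6 h, dosed with compounds in DMSO, then kept 18 h at 37 C.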

[9] = qHTS assay to identify small molecule antagonists of the constitutive androstane receptor (CAR) signaling pathway - cell viability counter screen (AID 1224837); also: nearly all actives have a fitted effect of over 45% in size
Summary of the method: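 CITCO at 50 nM final was added alongside compounds (15 concentrations) to double-stable hCAR/CYP2B6-2.2kb HepG2 cells. Following 23 hr at 37 C, cell viability was quantified by CellTiter-Fluor fluorescence intensity.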

[10] = biological target: Luciferin 4-monooxygenase (Photinus pyralis) (UniProt P08659); assay: qHTS assay to identify small molecule inhibitors of firefly luciferase (AID 1224835); also: nearly all actives have a fitted effect of over 25% in size
UniProt P08659, sequence (P08659 whole entry, looked up): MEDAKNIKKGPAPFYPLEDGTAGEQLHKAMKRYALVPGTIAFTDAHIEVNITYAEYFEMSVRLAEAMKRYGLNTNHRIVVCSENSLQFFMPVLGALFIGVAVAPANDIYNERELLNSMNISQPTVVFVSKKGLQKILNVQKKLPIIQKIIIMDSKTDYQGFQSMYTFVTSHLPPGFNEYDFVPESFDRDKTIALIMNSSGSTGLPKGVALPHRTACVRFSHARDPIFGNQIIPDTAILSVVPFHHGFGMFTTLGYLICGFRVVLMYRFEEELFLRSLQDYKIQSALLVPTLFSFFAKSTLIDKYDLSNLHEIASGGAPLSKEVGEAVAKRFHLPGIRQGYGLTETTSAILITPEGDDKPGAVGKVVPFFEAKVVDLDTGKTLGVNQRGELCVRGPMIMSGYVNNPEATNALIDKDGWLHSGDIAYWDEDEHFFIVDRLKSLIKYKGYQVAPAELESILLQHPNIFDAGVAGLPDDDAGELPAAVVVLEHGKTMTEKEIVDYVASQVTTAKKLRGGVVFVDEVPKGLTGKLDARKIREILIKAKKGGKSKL
Summary of the method: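 Inhibition of purified Photinus luciferase is measured by luminescence. Substrate levels (D-luciferin, ATP) sit at their KM values. Each compound is tested in a concentration series.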

[11] = activation: at 92.4 µM (top of the series) unless noted
Potency is read from the fitted curve at half-maximal effect; tags tell the direction and shape of the fitted curve or compound fluorescence and quenching.

**Q.** Which results are given for `CN(C)CCC=C1c2ccccc2CCc2ccccc21`?
**A.** Potency [1]: inconclusive: 61.1 µM [cytotoxic, partial curve]; Potency [2]: inconclusive: 68.6 µM [inhibitor, single point] and inconclusive: 33.5 µM [inhibitor, single point]; Potency [3]: inactive; Potency [4]: inconclusive: 61.1 µM [cytotoxic, single point]; Potency [5, 11]: inconclusive: 7.7 µM [inhibitor, full curve]; activation ([5]; at 42.5 µM (top of the series)): inconclusive: -17.3%; activation ([5]; at 92.4 µM (top of the series)): inconclusive: -30.7%; Potency [6]: inconclusive: 55 µM [cytotoxic, single point] and inconclusive: 26.8 µM [cytotoxic, single point]

**Q.** Which results are given for `C=CCc1cc(S(=O)(=O)c2ccc(O)c(CC=C)c2)ccc1O`?
**A.** Potency [7]: inconclusive: 61.1 µM [cytotoxic, single point]; Potency [8]: inconclusive: 54.5 µM [falling, partial curve]

**Q.** For `CN1CCC[C@@H]1CCO[C@](C)(c1ccccc1)c1ccc(Cl)cc1`, which Potency [7] is on record?
**A.** active: 26.6 µM

**Q.** What about the Potency [1] of the same compound?
**A.** inconclusive: 29.8 µM [cytotoxic, partial curve]

**Q.** And the Potency [9]?
**A.** inconclusive: 29.8 µM [cytotoxic, partial curve]

**Q.** What about the Potency [2] of the same compound?
**A.** inconclusive: 33.5 µM [inhibitor, single point]

**Q.** And the Potency [4]?
**A.** inconclusive: 33.5 µM [cytotoxic, single point]

**Q.** What does the source list for `COc1ccccc1/C=C/C=O`?
**A.** Potency [7]: inconclusive: 70.4 µM [cytotoxic, single point] and inconclusive: 68.6 µM [cytotoxic]; Potency [4]: inconclusive: 49.8 µM [cytotoxic, partial curve]; Potency [5, 11]: active: 31.4 µM and active: 54.5 µM

**Q.** With `O=C(CC(C(=O)OC1CCCCC1)S(=O)(=O)O)OC1CCCCC1` (centres undefined) as the compound, how does the Potency [1] read?
**A.** inactive

**Q.** And the Potency [9]?
**A.** inactive

**Q.** And the Potency [2]?
**A.** inactive

**Q.** What about the activation [5, 11] of the same compound?
**A.** inconclusive: -30.7%

**Q.** Which Potency [10] does the source give for `CCCCCCCCCCCCCCNCCO` here?
**A.** inconclusive: 30.9 µM [inhibitor, partial curve]

**Q.** What about the Potency [3] of the same compound?
**A.** active: 8.41 µM

**Q.** Which results are given for `O=Nc1ccc(Nc2ccccc2)cc1`?
**A.** Potency [1]: inconclusive: 61.4 µM [cytotoxic]; Potency [9]: inconclusive: 54.8 µM [cytotoxic]; Potency [3]: inconclusive: 19.4 µM [activator, partial curve, poor fit]; Potency [5, 11]: inconclusive: 43.5 µM [falling, partial curve]; activation [5, 11]: inconclusive: 11%; Potency [6]: inconclusive: 54.9 µM [cytotoxic, single point]

**Q.** With `O=C(c1ccc(O)cc1)c1ccc(O)cc1O` as the compound, how does the Potency [7] read?
**A.** inconclusive: 69.3 µM [cytotoxic, single point]

**Q.** What about the Potency [1] of the same compound?
**A.** inconclusive: 61.8 µM [cytotoxic, partial curve]

**Q.** And the Potency [3]?
**A.** active: 27.6 µM and active: 54.5 µM

**Q.** What about the Potency [4] of the same compound?
**A.** inconclusive: 49.1 µM [cytotoxic, partial curve, poor fit]

**Q.** And the Potency [5, 11]?
**A.** inactive

**Q.** With `Nc1ccc(S(=O)(=O)Nc2cnc3ccccc3n2)cc1` as the compound, how does the Potency [10] read?
**A.** inconclusive: 79.6 µM [inhibitor, partial curve, poor fit] and inactive

**Q.** What about the Potency [6] of the same compound?
**A.** inconclusive: 10.7 µM [cytotoxic, single point]

**Q.** With `CCCCCCCCCCCCCC(=O)OC(C)C` as the compound, how does the Potency [7] read?
**A.** inconclusive: 10.9 µM [cytotoxic, single point]

**Q.** For `C[C@H]1O[C@@H](O[C@H]2[C@@H](O)C[C@H](O[C@H]3[C@@H](O)C[C@H](O[C@H]4CC[C@@]5(C)[C@H](CC[C@@H]6[C@@H]5C[C@@H](O)[C@]5(C)[C@@H](C7=CC(=O)OC7)CC[C@]65O)C4)O[C@@H]3C)O[C@@H]2C)C[C@H](O)[C@@H]1O`, which Potency [7] is on record?
**A.** active: 86.4 nM and active: 95.8 nM

**Q.** And the Potency [1]?
**A.** inconclusive: 194 nM [cytotoxic, full curve] and inconclusive: 191 nM [cytotoxic, full curve]

**Q.** And the Potency [9]?
**A.** inconclusive: 172 nM [cytotoxic, full curve] and inconclusive: 214 nM [cytotoxic, full curve]

**Q.** And the Potency [4]?
**A.** inconclusive: 97 nM [cytotoxic, full curve] and inconclusive: 121 nM [cytotoxic, full curve]

**Q.** With `O=C1OC(O)C(C(Cl)Cl)=C1Cl` (centres undefined) as the compound, how does the Potency [7] read?
**A.** inconclusive: 70.7 µM [cytotoxic, single point]

**Q.** And the Potency [4]?
**A.** inconclusive: 63 µM [cytotoxic, single point]

**Q.** And the Potency [6]?
**A.** inconclusive: 4.01 µM [cytotoxic, full curve]

**Q.** For `O=C(OC[C@H]1O[C@@H](OC(=O)c2cc(O)c(O)c(OC(=O)c3cc(O)c(O)c(O)c3)c2)[C@H](OC(=O)c2cc(O)c(O)c(OC(=O)c3cc(O)c(O)c(O)c3)c2)[C@@H](OC(=O)c2cc(O)c(O)c(OC(=O)c3cc(O)c(O)c(O)c3)c2)[C@@H]1OC(=O)c1cc(O)c(O)c(OC(=O)c2cc(O)c(O)c(O)c2)c1)c1cc(O)c(O)c(OC(=O)c2cc(O)c(O)c(O)c2)c1`, which Potency [9] is on record?
**A.** inconclusive: 16.5 µM [cytotoxic, partial curve]

**Q.** What about the activity, negative = inhibition [2] of the same compound?
**A.** inactive: -0.544% [at 19 µM]

**Q.** What about the Potency [4] of the same compound?
**A.** inconclusive: 14.7 µM [cytotoxic, partial curve]

**Q.** And the Potency [5, 11]?
**A.** inconclusive: 13.1 µM [falling, partial curve]

— PubChem BioAssay (Tox21)
